The other results are listed elsewhere or left out. At the low end of the ranking the order means little.
The sequences below were run against T1, GST-Rok (full length) (UniProt O34857) (assay: protein binding microarray). Settings: Rok is a gene silencer of Bacillus subtilis; high values mean tight binding; most listed sequences are background and not binding sites; double strand, one strand shown.
T1 sequence: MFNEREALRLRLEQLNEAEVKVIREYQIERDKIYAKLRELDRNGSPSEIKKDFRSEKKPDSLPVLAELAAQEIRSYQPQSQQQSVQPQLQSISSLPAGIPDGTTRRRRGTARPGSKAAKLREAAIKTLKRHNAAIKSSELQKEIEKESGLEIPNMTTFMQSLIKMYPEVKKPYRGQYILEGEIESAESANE
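Further: rank score from −0.5 (least bound) to 0.5 (best bound).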

| Sequence | binding signal [E-score] |
| --- | --- |
| GACCAGTC | -0.178 |
| CTTGAGGA | -0.00408 |
| CTTGTGTC | -0.113 |
| ATCTTATA | 0.287 |
| AAAAGGCA | 0.0153 |
| GAGACAGA | -0.0774 |
| CAGAAAAA | -0.228 |
| CCTATGGC | -0.262 |
| CACTTGGG | -0.176 |
| AGGCGCGG | -0.322 |
| AGTCTAGA | 0.0654 |
| GCTACCCC | -0.106 |
| CCGATATC | -0.0456 |
| AGATGCAC | -0.0764 |
| AGAGCTAC | -0.0299 |
| GTCCCAGA | -0.25 |
| CACTGGCA | -0.307 |
| ATGCACGC | -0.0755 |
| ATTATCCA | 0.109 |
| ATGCTGGA | -0.0341 |
| CGCCCATA | -0.363 |
| CCCGTCAA | -0.325 |
| AATATTAA | 0.334 |
| CAACTCGC | -0.00406 |
| GACCCCTC | -0.427 |

| Sequence | binding signal [E-score] |
| --- | --- |
| AGTGTGCA | 0.037 |
| AAACTCTT | 0.188 |
| GTAAGCAA | 0.0243 |
| TCTGACCA | -0.132 |
| AGCTCTCG | -0.0291 |
| CGTAATGA | 0.0955 |
| GCGGCAAC | -0.197 |
| TAGTGCCA | 0.0249 |
| ATGTACTA | 0.321 |
| GTTCATGA | 0.101 |
| CGCCTGAC | -0.28 |
| AAAAGTAT | 0.205 |
| GTACCTTA | 0.193 |
| AGGAAGTA | 0.0966 |
| ATTTGAGG | 0.0564 |
| CTGGCACA | -0.24 |
| AAAAGCGC | -0.0281 |
| AGAGAGCT | -0.0184 |
| AAAACTAC | 0.453 |
| ACAATCAT | 0.17 |
| ACAGAGCG | -0.144 |
| CGAGACTC | -0.171 |
| ACATCAAA | -0.118 |
| ATCCATGA | -0.0395 |
| ACCTCATA | 0.0129 |

| Sequence | binding signal [E-score] |
| --- | --- |
| GTGCACAA | -0.0651 |
| GCTGTGAA | 0.0753 |
| AGGCGATC | -0.161 |
| AGGAGGAG | -0.394 |
| CTACTGTC | 0.207 |
| ACGATTCT | 0.209 |
| GGCTACAC | -0.287 |
| ACGAAGGC | -0.23 |
| TAACTTCA | 0.121 |
| ATCTCTGC | -0.135 |
| ATAACGGG | 0.00871 |
| CACACGTG | -0.021 |
| ACTTTCAA | 0.155 |
| GGAAACAC | -0.146 |
| TACGTCAA | 0.0487 |
| CAGTTGTA | 0.132 |
| GTGAACAA | 0.052 |
| AACTTACA | 0.18 |
| GATCTTGC | 0.197 |
| TGATTGAA | 0.0042 |
| AGATAGAA | 0.26 |
| ATCTCGTC | 0.0825 |
| CGTACTGC | 0.0418 |
| ACTGAAGT | 0.0422 |
| CGGTTCAC | -0.057 |

| Sequence | binding signal [E-score] |
| --- | --- |
| TCACGACA | -0.103 |
| CACTCTAC | -0.103 |
| CTCGTACC | -0.103 |
| ATGCAGCA | -0.126 |
| CACTCGTC | 0.00924 |
| TAGTCTGA | 0.148 |
| CCGTGTAG | -0.0932 |
| ACATCTAT | 0.309 |
| CAGGCGCC | -0.165 |
| AACAGCAA | 0.0713 |
| TCGATAGA | 0.285 |
| CGGTGATA | 0.0653 |
| ATGACCGG | -0.00748 |
| GGAGACCC | -0.332 |
| ACCTTGAA | -0.224 |
| CTGATCGC | -0.0832 |
| GGTACGAC | -0.0975 |
| ACGGCCCG | -0.242 |
| ATGGATAG | -0.028 |
| TATCAGAA | 0.119 |
| ATCAATAA | 0.19 |
| AATCTTTA | 0.13 |
| ACGCTGGC | -0.0836 |
| ACGCAATC | 0.0805 |
| CACTTGAA | -0.159 |

| Sequence | binding signal [E-score] |
| --- | --- |
| CTCAATAC | 0.0481 |
| AACACTCG | 0.0111 |
| GCATCTAC | 0.0875 |
| AATCATAG | 0.185 |
| AAGTCGAA | -0.0505 |
| ACGAATTA | 0.289 |
| AAATCCAG | 0.138 |
| CAAAGCAG | -0.0726 |
| CCTCCCAC | -0.258 |
| AATAGTGG | 0.135 |
| GTGGTAGA | 0.435 |
| CCGGGTGC | -0.275 |
| AATTGCAC | 0.139 |
| CGACATAA | 0.121 |
| CAAAAGCG | -0.0644 |
| ATAATGCC | 0.117 |
| ACCGGTAA | 0.255 |
| TATGCAAA | 0.217 |
| CCGGGAAC | -0.39 |
| ATAAACCA | 0.119 |
| CTACACAG | 0.0881 |
| AGGTCAAA | 0.141 |
| AGGGTTCA | -0.0816 |
| AATACTGT | 0.171 |
| CTGACCAG | -0.127 |

| Sequence | binding signal [E-score] |
| --- | --- |
| CATGAGCA | 0.13 |
| GATATTGA | 0.251 |
| AAGCCCTG | -0.382 |
| CCTCACAC | -0.0382 |
| GTGCCTGA | -0.0608 |
| ATACCAAT | 0.243 |
| ACCAACCG | -0.00471 |
| CCACGGTC | -0.0823 |
| GCGGACGC | -0.272 |
| AGGCACTC | -0.335 |
| ATTTTACG | 0.219 |
| GGTCCGGA | -0.2 |
| CGCATGAC | -0.03 |
| TCGGCAAA | -0.151 |
| CTTTCGGC | -0.277 |
| ATTAATTC | 0.248 |
| GTCTGTGA | -0.183 |
| AAGGGGGG | -0.446 |
| CACCTTGG | -0.248 |
| CAATATTG | 0.161 |
| ATTGCGGA | 0.0951 |
| CAGATCAG | -0.214 |
| AAGGTATA | 0.152 |
| AGTACGCG | -0.108 |
| ATGTCCAG | 0.025 |

| Sequence | binding signal [E-score] |
| --- | --- |
| CCCCGTAC | -0.167 |
| ATTGCTTG | 0.0689 |
| CGTGTGCA | 0.115 |
| GGATGCAA | -0.1 |
| CCGCCACG | -0.291 |
| ACGTATCG | 0.0464 |
| TAACTGCA | 0.255 |
| CCTGTAAG | -0.159 |
| CAGGTGCA | -0.198 |
| GAATTAAC | 0.0101 |
| CTGTGGTA | 0.0132 |
| CCCAGGCA | -0.18 |
| CGAAGGCA | -0.211 |
| CTTACCGC | 0.0909 |
| CCACCTGG | -0.205 |
| GTGCTGGA | -0.207 |
| CAATACGG | 0.0271 |
| AGTGCACA | 0.106 |
| CCATACAC | 0.104 |
| CTTCTCTC | 0.0122 |
| CAGAACTG | 0.0194 |
| TGTAGAAA | 0.396 |

Reference: paper PMC6212790
